Data on 36 molecules can be found in the supplement of paper PMC5919970.

Structures can show the parent of a compound that is named as a salt. Whole data set: some 2,000 compounds, median “fractional viability relative to vehicle” near 0.91, cut for the lowest 2% near 0.045. This is one part of the list.

The subject of the assay is TYKNU. Description: fractional viability relative to vehicle; TYKNU is a high-grade serous ovarian cancer line; higher = less growth inhibition. Conditions: 72 h. The method, boiled down:
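TYKNU control cells or lentiCRISPRv2 knockout derivatives were plated at 500 cells per well in duplicate into drug-stamped 384-well plates holding a ~2100-compound library at 2 or 10 μM. Culture was in RPMI 1640 with 10% FBS at 37 °C in 5% CO2, with 72 h of drug treatment. Viability was measured by Cell Titer Glo luminescence, and the averaged duplicate treatment wells were normalised to duplicate control wells at the same plate position.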

The mark [1] stands for this setting: 2uM, genotype: DNM1L knockout (sgDNM1L #1).
Where [2] appears, read: 2uM, genotype: sgCTRLA1 (non-targeting control).
Setting [3] is: 10uM, genotype: DNM1L knockout (sgDNM1L #1).
[4] abbreviates: 10uM, genotype: sgCTRLA1 (non-targeting control).

Regarding `Cc1ccc(O)c([C@H](CCN(C(C)C)C(C)C)c2ccccc2)c1` [Tolterodine tartrate], the fractional viability is 0.88 under setting [1], 1.02 under setting [2], 0.688 under setting [3] and 1.06 under setting [4].

On to `CCCCOc1ccc(CC(=O)NO)cc1` [Bufexamac], for which the fractional viability was 1.12 under setting [1], 1.11 under setting [2], 0.86 under setting [3] and 0.9 under setting [4].

The molecule `CCCCCCCCCCCCCCCCO` [1-Hexadecanol] registered a fractional viability under setting [1] of 0.833, a fractional viability under setting [2] of 1.09, a fractional viability under setting [3] of 0.879 and a fractional viability under setting [4] of 1.1.

As for `CCN1/C(=C/C(C)=O)Sc2ccc(OC)cc21`, the fractional viability was 0.758 under setting [1], 0.997 under setting [2], 0.679 under setting [3] and 0.915 under setting [4].

As to `CCCCC(C=O)NC(=O)C(CC(C)C)NC(=O)C(CC(C)C)NC(C)=O` (centres undefined), the fractional viability reads like this: under setting [1], 0.729; under setting [2], 0.896; under setting [3], 0.784; under setting [4], 0.747.

As for `Cc1nn(C)c(COc2ccc(N3CCN(S(=O)(=O)N(C)C)CC3)cc2)c1-c1cccc2c(CCCOc3cccc4ccccc34)c(C(=O)O)n(CCN3CCOCC3)c12`, the fractional viability turned out to be 0.762 under setting [1], 0.94 under setting [2], 0.644 under setting [3] and 0.518 under setting [4].

For `CCCC(=O)Nc1ccc(OCC(O)CNC(C)C)c(C(C)=O)c1` (centres undefined) [Acebutolol HCl], the fractional viability reads like this: under setting [1], 0.982; under setting [2], 1.09; under setting [3], 0.768; under setting [4], 0.958.

For the molecule `C[C@@H]1O[C@@H](OC[C@H]2O[C@@H](Oc3c(-c4ccc(O)c(O)c4)oc4cc(O)cc(O)c4c3=O)[C@H](O)[C@@H](O)[C@@H]2O)[C@H](O)[C@H](O)[C@H]1O` [Rutin], the fractional viability is 0.96 under setting [1], 1.19 under setting [2], 0.774 under setting [3] and 1.1 under setting [4].

Take `CN1[C@@H]2CC[C@H]1C[C@@H](OC(c1ccccc1)c1ccccc1)C2` [Benztropine mesylate]: the fractional viability came out at 0.919 under setting [1], 1.03 under setting [2], 0.712 under setting [3] and 0.947 under setting [4].

`N=C(N)c1ccc(N=NNc2ccc(C(=N)N)cc2)cc1` [Diminazene Aceturate]: the fractional viability by setting is: under setting [1], 1.01; under setting [2], 1.09; under setting [3], 0.817; under setting [4], 1.07.

Take `C[C@H](CCC(=O)O)[C@H]1CC[C@H]2[C@@H]3C[C@H](O)[C@@H]4C[C@H](O)CC[C@]4(C)[C@H]3CC[C@]12C` [Hyodeoxycholic acid (HDCA)]: the fractional viability is 0.969 under setting [1], 1.06 under setting [2], 0.951 under setting [3] and 1.05 under setting [4].

In the case of `NC(=O)Nc1sc(-c2ccc(F)cc2)cc1C(N)=O`, the fractional viability runs as follows: under setting [1], 0.75; under setting [2], 0.883; under setting [3], 0.245; under setting [4], 0.294.

On to `CC(C)(C)OC(=O)N[C@H]1CCCCC/C=C\[C@@H]2C[C@@]2(C(=O)NS(=O)(=O)C2CC2)NC(=O)[C@@H]2C[C@@H](OC(=O)N3Cc4cccc(F)c4C3)CN2C1=O` [Danoprevir (ITMN-191)], for which the fractional viability runs as follows: under setting [1], 1.02; under setting [2], 1.05; under setting [3], 0.951; under setting [4], 1.13.

`N[C@@H](CC(=O)N1CCn2c(nnc2C(F)(F)F)C1)Cc1cc(F)c(F)cc1F` [Sitagliptin phosphate monohydrate]: the fractional viability was 1.09 under setting [1], 1.2 under setting [2], 0.959 under setting [3] and 1.08 under setting [4].

Turning to `C[C@@H]1O[C@@H](O[C@H]2[C@H](Oc3cc(O)c4c(c3)O[C@H](c3ccc(O)cc3)CC4=O)O[C@H](CO)[C@@H](O)[C@@H]2O)[C@H](O)[C@H](O)[C@H]1O` [Naringin], the fractional viability by setting is: under setting [1], 0.915; under setting [2], 1.12; under setting [3], 0.827; under setting [4], 1.

Consider `C/C(O)=C(\C#N)C(=O)Nc1ccc(C(F)(F)F)cc1` [Teriflunomide], for which the fractional viability is 0.811 under setting [1], 0.883 under setting [2], 0.395 under setting [3] and 0.564 under setting [4].

On to `COc1nc(C)cnc1NS(=O)(=O)c1cccnc1-c1ccc(-c2nnco2)cc1` [Zibotentan (ZD4054)], for which the fractional viability is, setting by setting: under setting [1], 1.16; under setting [2], 1.21; under setting [3], 0.906; under setting [4], 1.

On to `Nc1nccc2c1ncn2C1C=C(CO)C(O)C1O` (centres undefined) [3-Deazaneplanocin A (DZNeP)], for which the fractional viability runs as follows: under setting [1], 0.453; under setting [2], 0.62; under setting [3], 0.42; under setting [4], 0.575.

The molecule `Cc1nc(N(C)C(=O)Cc2ccc(-c3ccccn3)cc2)sc1S(N)(=O)=O` [Pritelivir (BAY 57-1293)] displayed a fractional viability under setting [1] of 0.897, a fractional viability under setting [2] of 0.947, a fractional viability under setting [3] of 0.855 and a fractional viability under setting [4] of 0.818.

Turning to `Cn1cc(/C=C/C(=O)c2cccc(F)c2)cc1/C=C/C(=O)NO`, the fractional viability came to 1.05 under setting [1], 1.14 under setting [2], 0.58 under setting [3] and 0.87 under setting [4].

`C[C@@H](Oc1cc(-c2cnn(C3CCNCC3)c2)cnc1N)c1c(Cl)ccc(F)c1Cl`: the fractional viability was 0.669 under setting [1], 0.73 under setting [2], 0.128 under setting [3] and 0.126 under setting [4].

As to `Cc1cc(Nc2ncc(Cl)c(Nc3ccccc3S(=O)(=O)C(C)C)n2)c(OC(C)C)cc1C1CCNCC1`, the fractional viability turned out to be 0.612 under setting [1], 0.403 under setting [2], 0.026 under setting [3] and 0.0128 under setting [4].

With `O=C(O)Cc1cc(I)c(Oc2ccc(O)c(I)c2)c(I)c1` [Tiratricol], the fractional viability by setting is: under setting [1], 0.914; under setting [2], 1.24; under setting [3], 0.699; under setting [4], 0.986.

For the molecule `CCC(CC)(NC(=O)C(C)C)C(=O)N[C@@H](CCCN=C(N)N)C(=O)NC1(C(=O)NC(c2ccc(F)cc2)c2ccc(F)cc2)CCCC1`, the fractional viability reads like this: under setting [1], 0.777; under setting [2], 1.17; under setting [3], 0.671; under setting [4], 1.06.

On to `Cc1ccc(C(=O)C(C)CN2CCCCC2)cc1` (centres undefined) [Tolperisone HCl], for which the fractional viability reads like this: under setting [1], 0.857; under setting [2], 1.19; under setting [3], 0.793; under setting [4], 0.915.

`CNCC[C@@H](Oc1ccccc1C)c1ccccc1` [Atomoxetine HCl]: the fractional viability under setting [1] stood at 1.04, the fractional viability under setting [2] is 1.15, the fractional viability under setting [3] worked out at 0.786 and the fractional viability under setting [4] stood at 1.16.

For the molecule `COc1cc2ncnc(Nc3ccc(F)c(Cl)c3)c2cc1NC(=O)/C=C/CN1CCCCC1`, the fractional viability under setting [1] is 0.843, the fractional viability under setting [2] is 0.792, the fractional viability under setting [3] worked out at 0.251 and the fractional viability under setting [4] was 0.0521.

In the case of `CCCCC1C(=O)N(c2ccccc2)N(c2ccccc2)C1=O` [Phenylbutazone], the fractional viability runs as follows: under setting [1], 1.04; under setting [2], 1.12; under setting [3], 0.94; under setting [4], 1.1.

Regarding `Nc1ncnc2c1nc(Br)n2[C@@H]1O[C@@H]2COP(=O)(O)O[C@H]2[C@H]1O` [8-Bromo-cAMP], the fractional viability is, setting by setting: under setting [1], 0.579; under setting [2], 0.676; under setting [3], 0.481; under setting [4], 0.386.

On to `COCCCOc1cc(C[C@@H](C[C@H](N)[C@@H](O)C[C@H](C(=O)NCC(C)(C)C(N)=O)C(C)C)C(C)C)ccc1OC` [Aliskiren Hemifumarate], for which the fractional viability by setting is: under setting [1], 0.931; under setting [2], 1.1; under setting [3], 0.879; under setting [4], 1.03.

Consider `CCCc1nc2c(C)cc(-c3nc4ccccc4n3C)cc2n1Cc1ccc(-c2ccccc2C(=O)O)cc1` [Telmisartan], for which the fractional viability is, setting by setting: under setting [1], 1; under setting [2], 1.18; under setting [3], 0.835; under setting [4], 1.06.

As to `Cc1ccc(C(=O)N(CCCN)[C@@H](c2nc3cc(Cl)ccc3c(=O)n2Cc2ccccc2)C(C)C)cc1`, the fractional viability was 0.325 under setting [1], 0.437 under setting [2], 0.107 under setting [3] and 0.105 under setting [4].

For the molecule `CC(=O)/N=c1/sc(S(N)(=O)=O)nn1C` [Methazolamide], the fractional viability reads like this: under setting [1], 1.05; under setting [2], 1.16; under setting [3], 0.883; under setting [4], 1.1.

For the molecule `CC1=CC(=O)c2ccccc2C1=O` [Menadione], the fractional viability is, setting by setting: under setting [1], 0.872; under setting [2], 1.1; under setting [3], 0.952; under setting [4], 0.951.

Consider `CC(=O)NC[C@H]1CN(c2ccc(N3CCOCC3)c(F)c2)C(=O)O1` [Linezolid], for which the fractional viability by setting is: under setting [1], 1.3; under setting [2], 1.26; under setting [3], 0.842; under setting [4], 1.04.

`Cc1nccn1CC1CCc2c(c3ccccc3n2C)C1=O` (centres undefined) [Ondansetron HCl]: the fractional viability is, setting by setting: under setting [1], 0.951; under setting [2], 1.12; under setting [3], 1.07; under setting [4], 1.08.
